Test results taken from PubChem BioAssay AID1508623 (National Center for Advancing Translational Sciences (NCATS), 2021).
In all, about 48,000 compounds went through this assay and about 450 (0.94%) were called active. Inconclusive results (about 19%) are left out. Calls follow the shape of the dose curve; as a rule, active = well fitted inhibition curve with a large enough effect; inconclusive = small, poorly fitted or top-dose-only effect; inactive = no such curve, though single readings can be large or run the other way. Some of the results follow.

Assay: Primary qHTS for Identification of Small Molecule Inhibitors of Huntingtin Promoter Activity; also: nearly all actives have a fitted effect of over 50% in size
Conditions: HEK293 HTT promoter firefly luciferase reporter (activity 0% = vehicle and -100% = no light), 24 h; series mostly up to 57.5 µM; activity change, negative = inhibition: at the top concentration
In short: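 Quantitative HTS used concentration series of up to 57.5 uM final on HEK293 luciferase reporter cells, 24 h at 37 degrees C. Readout was Dual-Glo firefly luminescence.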

For Oc1ccc(-c2nc(-c3ccccc3)c(-c3ccc(Br)cc3)[nH]2)cc1, which “activity change, negative = inhibition” value is on record?
Its value is inactive: -20.6%.

For Cc1nn(-c2ccccc2)c2c1cc1c(=O)n(C)c(=O)nc-1n2-c1cccc(Cl)c1, which “activity change, negative = inhibition” value is on record?
The value was inactive: -14.7%.

With O=C(COC(=O)C(Cc1c[nH]c2ccccc12)NC(=O)c1ccc(Cl)cc1)c1ccc(Cl)cc1 (centres undefined) as the compound, how does the “activity change, negative = inhibition” value read?
The value was inactive: -25.1%.

With COc1ccc(-c2cc(=O)c3cc(OCC(=O)OC(C)C)ccc3o2)cc1 as the compound, how does the “activity change, negative = inhibition” value read?
Its value is inactive: -12.1%.

For CN(C)CC/C=C1/c2ccccc2COc2ccc(CC(=O)O)cc21, which “activity change, negative = inhibition” value is on record?
Its value is inactive: -3.97%.

With Cc1ccc(NC(=O)Cn2c(=O)n(CCCCC(=O)NCCc3ccc(Cl)cc3)c(=O)c3ccccc32)cc1 as the compound, how does the “activity change, negative = inhibition” value read?
Its value is inactive: -8.81%.

With COc1ccc(CCNC(=O)c2oc(=O)c3ccccc3c2-c2ccccc2)cc1OC as the compound, how does the “activity change, negative = inhibition” value read?
Its value is inactive: -17.3%.

Which “activity change, negative = inhibition” value does the source give for COc1ccc(CNC(=O)CN2C(=O)COc3ccc(S(=O)(=O)N4CCC(C)CC4)cc32)cc1 here?
The value was inactive: -0.647%.

With COc1cc(NC(=O)CCS(=O)(=O)c2nc(-c3ccc4c(c3)OCO4)cc(C(F)(F)F)n2)cc(OC)c1OC as the compound, how does the “activity change, negative = inhibition” value read?
Its value is inactive: -3.49%.

For COC(=O)c1sc(N2C(=O)c3oc4ccccc4c(=O)c3C2c2ccc(O)cc2)nc1C (centres undefined), which activity change, negative = inhibition is on record?
Its activity change, negative = inhibition is inactive: -15.4% [at 11.5 µM].

For COCCCNC(=O)CSc1nc2cc3c(cc2c(=O)n1CCCCCC(=O)NCc1ccc2c(c1)OCO2)OCO3, which “activity change, negative = inhibition” value is on record?
Its value is inactive: -8.36%.

With CCCCNC(=O)C1CCC(CNS(=O)(=O)c2ccc(C)cc2)CC1 (centres undefined) as the compound, how does the “activity change, negative = inhibition” value read?
Its value is inactive: -5.29%.

For Cc1nc(NC(=O)c2c(-c3ccccc3)c(-c3ccccc3)nn(C)c2=O)sc1C, which “activity change, negative = inhibition” value is on record?
The value was inactive: 17.2%.

Which “activity change, negative = inhibition” value does the source give for Cc1cccc(N2CCN(C(=O)CN3C(=O)COc4ccc(S(=O)(=O)N5CCOCC5)cc43)CC2)c1C here?
The value was inactive: -7.96%.

Which “activity change, negative = inhibition” value does the source give for Fc1ccc(Nc2nc(SCc3ccccc3F)nc3ccccc23)cc1 here?
Its value is inactive: -28.6%.

Which “activity change, negative = inhibition” value does the source give for Cc1ccc(Cn2c(SCC(=O)NCc3ccccc3Cl)nc3ccsc3c2=O)cc1 here?
Its value is inactive: -15.1%.

Which “activity change, negative = inhibition” value does the source give for COc1cc(NC(=O)CCCc2nnc3n(CC(C)C)c(=O)c4sccc4n23)cc(OC)c1 here?
The value was inactive: -16.6%.

For Cc1cc([N+](=O)[O-])ccc1NC(c1nnc(-c2ccccc2)o1)c1ccccc1F (centres undefined), which “activity change, negative = inhibition” value is on record?
The value was inactive: -11.1%.

Which “activity change, negative = inhibition” value does the source give for CC(=O)N1CCc2cc(Br)cc(S(=O)(=O)CCC(=O)N3CCN(c4ccccc4)CC3)c21 here?
Its value is inactive: -2.12%.

With Cc1cc(-c2ccc(C)c(S(=O)(=O)NCCc3ccc(S(N)(=O)=O)cc3)c2)on1 as the compound, how does the “activity change, negative = inhibition” value read?
The value was inactive: -19.3%.

For CC(C)c1ccc(NS(=O)(=O)c2ccc3[nH]cc(C(=O)NCC4CCCO4)c(=O)c3c2)cc1 (centres undefined), which “activity change, negative = inhibition” value is on record?
The value was inactive: 2.97%.

With CCOc1ccc2nc(N3CCCC(C(=O)Nc4ccc(OC)c(Cl)c4)C3)sc2c1 (centres undefined) as the compound, how does the “activity change, negative = inhibition” value read?
Its value is inactive: 3.42%.

With CN(C)S(=O)(=O)c1ccc2c(c1)N(CC(=O)Nc1ccc(F)cc1)C(=O)CS2 as the compound, how does the “activity change, negative = inhibition” value read?
The value was inactive: -6.39%.

With COC(=O)c1ccccc1NC(=O)c1cc(C)nc2c1c(C)nn2-c1ccc(C)cc1 as the compound, how does the “activity change, negative = inhibition” value read?
Its value is inactive: -8.25%.

Which “activity change, negative = inhibition” value does the source give for COc1cc(OC)c(NC(=O)n2ncc3cc(Cl)ccc32)cc1Cl here?
Its value is inactive: -0.589%.

For COc1ccc(C2CC(=O)c3c([nH]c(C(=O)OC4CCCCCC4)c3C)C2)cc1 (centres undefined), which “activity change, negative = inhibition” value is on record?
Its value is inactive: -18.9%.

Which “activity change, negative = inhibition” value does the source give for COc1ccc(OC)c(NC(=O)CSC2=Nc3ccccc3C3=NC(CC(=O)NCc4ccc(F)cc4)C(=O)N23)c1 (centres undefined) here?
The value was inactive: -24.2%.

For COc1cccc(OCC(=O)NC2CC(=O)N(c3ccc4c(c3)OCCO4)C2)c1 (centres undefined), which “activity change, negative = inhibition” value is on record?
The value was inactive: -10.2%.

Which “activity change, negative = inhibition” value does the source give for Cc1ccc(Cl)cc1NC(=O)NCc1cccn1Cc1ccc(F)cc1 here?
The value was inactive: -17.2%.

Which “activity change, negative = inhibition” value does the source give for CC(C(=O)O)c1ccc(C(=O)c2ccccc2)s1 (centres undefined) here?
The value was inactive: 32.6%.

For COc1ccc2c(c1)c1c(c(=O)n(-c3ccc(OC)c(OC)c3)c(=O)n1CC(=O)N1CCCC1)n2C, which “activity change, negative = inhibition” value is on record?
The value was inactive: -10.1%.

With Cc1ccc(NC(=O)N2CCN(c3nnc(C)c4c(C)n(-c5ccc(Cl)cc5)nc34)CC2)c(C)c1 as the compound, how does the “activity change, negative = inhibition” value read?
The value was inactive: -6.12%.

With Cc1ccc(CNC(=O)CSc2ncc(S(=O)(=O)c3ccc(C)c(Cl)c3)c(=O)[nH]2)cc1 as the compound, how does the “activity change, negative = inhibition” value read?
Its value is inactive: -17.3%.

Which “activity change, negative = inhibition” value does the source give for CCOc1ccc(OCC)c(NC(=O)CCc2nc3cccnc3n2Cc2cccs2)c1 here?
Its value is inactive: -24.3%.

With COc1cc(Cl)c(C)cc1NC(=O)CSc1nc2c(c(=O)[nH]1)CCCC2 as the compound, how does the “activity change, negative = inhibition” value read?
Its value is inactive: -7.73%.

With CN(C)c1ccc(CNC(=O)c2cnc3sc(N4CCCCCC4)nn3c2=O)cc1 as the compound, how does the “activity change, negative = inhibition” value read?
Its value is inactive: -3.6%.

Which “activity change, negative = inhibition” value does the source give for COC(=O)N1CCCc2cc(S(=O)(=O)N3CCN(c4ccccc4)CC3)ccc21 here?
The value was inactive: -18.5%.

For CCCCNC(=O)CCCn1c(=O)c2ccccc2n(Cc2c(C)cc(C)cc2C)c1=O, which “activity change, negative = inhibition” value is on record?
The value was inactive: -9.88%.

For Cc1cccc(Cc2c(C)nc3nc(SCc4ccccc4Cl)nn3c2C)c1, which “activity change, negative = inhibition” value is on record?
Its value is inactive: -7.62%.

Which “activity change, negative = inhibition” value does the source give for Cc1ccc(C)c(Cn2c(=O)n(CCC(=O)NCc3ccc4c(c3)OCO4)c(=O)c3sccc32)c1 here?
The value was inactive: -11.8%.

Which “activity change, negative = inhibition” value does the source give for COc1ccc(C2CC(=O)Nc3c2c(=O)n(C)c2nc4ccccc4n32)cc1 (centres undefined) here?
Its value is inactive: -13.5%.

With COc1ccc(-c2noc(-c3ccc(C)cc3Cl)n2)cc1OC as the compound, how does the “activity change, negative = inhibition” value read?
Its value is inactive: 35.6%.

Which “activity change, negative = inhibition” value does the source give for CS(=O)(=O)n1nc(-c2ccco2)nc1NCc1ccccc1Cl here?
Its value is inactive: 11.8%.

For COc1ccc(C(=O)c2cn(Cc3cccc(C)c3)c3cc4c(cc3c2=O)OCO4)cc1, which “activity change, negative = inhibition” value is on record?
Its value is inactive: -27.1%.

For COc1cc(Cl)c(C)cc1NC(=O)CSc1cc(-c2ccccc2)nc(C)n1, which “activity change, negative = inhibition” value is on record?
The value was inactive: -6.78%.

With CCOC(=O)c1[nH]c(C)c(C(=O)NCc2cccc(OC)c2)c1C as the compound, how does the “activity change, negative = inhibition” value read?
Its value is inactive: -23.6%.

With CCc1ccccc1NC(=O)Cn1c(=O)n(CC(=O)NCCc2ccccc2)c(=O)c2ccccc21 as the compound, how does the “activity change, negative = inhibition” value read?
Its value is inactive: -5.42%.

Which “activity change, negative = inhibition” value does the source give for COc1ccc(CC(=O)NCCc2csc(-c3ccc(C(F)(F)F)cc3)n2)cc1 here?
Its value is inactive: -7.49%.

With COC(=O)c1sc2cccc(F)c2c1S(=O)(=O)Nc1ccc(C)cc1Cl as the compound, how does the “activity change, negative = inhibition” value read?
The value was inactive: -1.18%.

For Cn1c(=O)c2c(SCC(=O)NCc3ccc(F)cc3)nc(-c3ccccc3Cl)nc2n(C)c1=O, which “activity change, negative = inhibition” value is on record?
The value was inactive: 0%.

With NC(=O)NS(=O)(=O)c1ccc(N)cc1 as the compound, how does the “activity change, negative = inhibition” value read?
The value was inactive: 3.99%.

For COc1ccccc1N1CCN(C(=O)CCn2nc(C)c(S(=O)(=O)N3CCCC3)c2C)CC1, which “activity change, negative = inhibition” value is on record?
Its value is inactive: -22.2%.

Which “activity change, negative = inhibition” value does the source give for O=C(Nc1nnc(C2CC(=O)N(c3ccc(Cl)cc3)C2)s1)c1ccco1 (centres undefined) here?
Its value is inactive: -5.9%.

Which “activity change, negative = inhibition” value does the source give for O=C(Nc1ccc2[nH]c(=O)c(=O)[nH]c2c1)c1cccc(F)c1 here?
Its value is inactive: 4.31%.

With Cc1ccccc1C1=CCN(c2ncc(NC(=O)c3ccc(Cl)cc3)cc2C(=O)O)CC1 as the compound, how does the “activity change, negative = inhibition” value read?
Its value is inactive: 0.834%.

With Cc1nc2nc(SCC(=O)NCCc3ccc(Cl)cc3)nn2c(C)c1Cc1ccccc1Cl as the compound, how does the “activity change, negative = inhibition” value read?
Its value is inactive: -10.4%.

With CC(=O)c1ccc(N2CCN(C(=O)CCn3cnc4onc(-c5ccc(F)cc5)c4c3=O)CC2)cc1 as the compound, how does the “activity change, negative = inhibition” value read?
Its value is inactive: 3.98%.

Which “activity change, negative = inhibition” value does the source give for O=C1CC(c2ccc(F)cc2)c2c(c3ccccc3[nH]c2=O)O1 (centres undefined) here?
The value was inactive: -4.6%.

Which “activity change, negative = inhibition” value does the source give for CCOC(=O)c1ccc(NC(=O)CSc2nccn2-c2cc(C)cc(C)c2)cc1 here?
Its value is inactive: -23.4%.
